# Test results from PubChem BioAssay AID588591 (National Center for Advancing Translational Sciences (NCATS), 2011).
# Screen size: about 390,000 compounds; about 4,700 (1.2%) were called active. The inconclusive results got no clear call from the source; some entries with a clear call stand among them for comparison. Calls come from the whole dose curve; as a rule, active = well fitted inhibition curve with a large enough effect; inconclusive = small, poorly fitted or top-dose-only effect, or another doubt; inactive = no such curve, though single readings can be large or run the other way. A potency beside an inconclusive call is a rough fit, not a confirmed value.
# Biological target: DNA polymerase eta (Homo sapiens) (UniProt Q9Y253)
# Experiment: qHTS for Inhibitors of Polymerase Eta
# Details: recombinant Pol eta, fluorescent DNA replication assay; series mostly up to 114 µM; activity change, negative = inhibition: at the top concentration
# Summary of the method: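 Pol eta at 10 nM preincubated with compounds 15 min at room temperature; reaction started with fluorescent substrate (50 nM final) and read kinetically at 0 and 10 min.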
# % is set by controls: 0 for no effect and ±100 for the full control effect; potency is the fitted concentration of half-maximal effect; tags give direction and shape of the fitted curve.
# Sequence of UniProt Q9Y253 (Q9Y253 whole entry, looked up): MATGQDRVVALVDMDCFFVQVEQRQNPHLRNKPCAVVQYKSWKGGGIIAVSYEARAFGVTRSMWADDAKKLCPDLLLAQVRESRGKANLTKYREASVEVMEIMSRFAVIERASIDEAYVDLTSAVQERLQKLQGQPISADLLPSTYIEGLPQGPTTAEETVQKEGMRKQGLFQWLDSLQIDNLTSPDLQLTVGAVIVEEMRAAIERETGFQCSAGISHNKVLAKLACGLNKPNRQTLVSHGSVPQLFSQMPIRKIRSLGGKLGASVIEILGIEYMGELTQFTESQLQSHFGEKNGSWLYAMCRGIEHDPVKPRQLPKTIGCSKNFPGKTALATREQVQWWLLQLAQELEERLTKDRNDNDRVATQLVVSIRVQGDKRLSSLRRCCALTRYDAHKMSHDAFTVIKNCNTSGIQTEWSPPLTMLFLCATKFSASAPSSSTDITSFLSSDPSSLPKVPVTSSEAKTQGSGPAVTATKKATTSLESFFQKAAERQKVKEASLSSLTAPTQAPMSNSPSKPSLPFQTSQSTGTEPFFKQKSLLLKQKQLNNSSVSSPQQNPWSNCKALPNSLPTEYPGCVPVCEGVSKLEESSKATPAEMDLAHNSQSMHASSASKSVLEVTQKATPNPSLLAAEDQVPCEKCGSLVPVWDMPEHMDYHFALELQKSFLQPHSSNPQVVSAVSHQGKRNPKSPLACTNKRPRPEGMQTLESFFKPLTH
Structure (SMILES),Potency,"activity change, negative = inhibition"
O=C(O)c1ccc2c(=O)n3cc(C(=O)c4ccccc4O)cc(Cl)c3nc2c1,active: 8.91 µM,–
CCOC(=O)c1c(NC(=O)CSc2nnc(C)c(=O)[nH]2)sc2c1CCC2,"inconclusive: 11.2 µM [inhibitor, partial curve, poor fit]",–
Cc1ccc(S(=O)(=O)N(C)C)cc1NC(=O)c1cc(-c2ccco2)nc2ccccc12,"inconclusive: 14.1 µM [inhibitor, full curve, poor fit]",–
O=c1c2ccccc2nc(/C=C/c2ccc([N+](=O)[O-])o2)n1CCCO,active: 15.8 µM,–
Oc1c(C(c2ccc(F)cc2)N2CCCC2)sc2nc(-c3ccco3)nn12 (configuration not stated),"inconclusive: 89.1 µM [inhibitor, single point]",–
O=C1c2ccccc2C(=O)N1c1nc(-c2cccs2)cs1,"inconclusive: 17.8 µM [inhibitor, partial curve, poor fit]",–
CCN1CCN(c2oc(-c3ccc(COc4ccc(OC)cc4)o3)nc2C#N)CC1,"inconclusive: 6.31 µM [inhibitor, partial curve, poor fit]",–
C/C=C1\COC(C(=O)NCc2ccccc2)(C(F)(F)F)C=C1C=C1CCCCC1 (configuration not stated),"inconclusive: 79.4 µM [inhibitor, partial curve, poor fit]",–
Cc1ccc(OCCNC(=O)CNC(=O)c2ccc(Cl)c([N+](=O)[O-])c2)cc1,"inconclusive: 79.4 µM [inhibitor, partial curve, poor fit]",–
CCOC(=O)c1c(NC(=O)COC(=O)CCCOc2ccc(OC)cc2)sc(C(=O)N(C)C)c1C,"inconclusive: 44.7 µM [inhibitor, partial curve, poor fit]",–
CCn1nc(C)c(NC(=O)/C=C/c2ccc(OC)c(COc3ccc(Cl)cc3Br)c2)c1C,"inconclusive: 7.94 µM [inhibitor, full curve, poor fit]",–
Cc1nnc(NC(=O)c2cc(-c3ccncc3)nc3c(C)cccc23)s1,active: 44.7 µM,–
COC(=O)C1=C(C)N(CCCC(=O)O)C(=O)NC1c1ccccc1OS(=O)(=O)c1ccc([N+](=O)[O-])cc1 (configuration not stated),–,inactive: -0.632%
O=C(N/N=C/c1ccc2cccc(OCc3ccccc3)c2n1)c1ccc(Cl)cc1,"inconclusive: 28.2 µM [inhibitor, single point]",–
Cc1cc(/C=C2\SC(=S)NC2=O)c(C)n1-c1ccc(O)cc1,active: 50.1 µM,–
COC(=O)C1=C(CSc2nc3c(cc2C#N)CN(C)CC3)OC(N)=C(C#N)C1c1ccc(F)cc1 (configuration not stated),"inconclusive: 56.2 µM [inhibitor, partial curve, poor fit]",–
COc1ccc(C(=O)COC(=O)C(O)c2ccccc2)c(OC)c1 (configuration not stated),"inconclusive: 14.1 µM [inhibitor, full curve, poor fit]",–
Cc1cc(F)ccc1NC(=O)CCS(=O)(=O)c1cccc2nsnc12,–,inactive: -14.1%
C#CCOCCOCCOCCNc1nc(N2CCN(C(=O)Cn3cc(CCO)nn3)CC2)nc(N2CCN(C(=O)[C@H]([C@@H](C)CC)n3cc(CCCN=C(N)N)nn3)CC2)n1,–,inactive: -18.9%
NS(=O)(=O)c1cc(C(=O)N=Nc2c(O)[nH]c3ccccc23)ccc1Cl,"inconclusive: 56.2 µM [inhibitor, partial curve]",–
Cc1ccc(OCCSc2nc(-c3cccs3)nc3cc(=O)[nH]n23)cc1Cl,active: 79.4 µM,–
CCn1nc(C)c(CN2CCc3c([nH]c4ccccc34)C2C(C)(C)C)c1C (configuration not stated),"inconclusive: 79.4 µM [inhibitor, partial curve, poor fit]",–
O=S(=O)(Nc1cccc(-c2cn3ccsc3n2)c1)c1ccc(F)cc1,"inconclusive: 3.55 µM [inhibitor, partial curve, poor fit]",–

Structure (SMILES),Potency,"activity change, negative = inhibition"
CCOC(=O)c1ccc(NC(=O)N2CCN(Cc3ccccc3)CC2)cc1,–,inactive: -3.65%
COc1ccc(C(CNC(=O)c2ccc(NS(=O)(=O)c3ccc(F)c(C)c3)cc2)N2CCCC2)cc1 (configuration not stated),"inconclusive: 0.631 µM [inhibitor, full curve, poor fit]",–
COC(=O)c1sc(-c2ccc(C(C)(C)C)cc2)cc1NC(=O)c1ccccc1C(=O)O,active: 89.1 µM,–
Cc1noc(C)c1CSc1nc2ccccc2nc1NS(=O)(=O)c1ccc(Cl)cc1,active: 79.4 µM,–
O=C1NC2(CCCc3ccccc32)C(=O)N1Cc1nnc(-c2ccccc2Br)o1 (configuration not stated),"inconclusive: 28.2 µM [inhibitor, partial curve]",–
Cc1cccc(C(=O)NNS(=O)(=O)c2ccccc2)c1O,–,inactive: 1.88%
CCOC(=O)Nc1cccc(Cl)c1C,"inconclusive: 35.5 µM [inhibitor, single point]",–
CC(=O)c1cccc(NC(=O)CCc2nnc3ccc(NCc4ccco4)nn23)c1,"inconclusive: 17.8 µM [inhibitor, full curve]",–
O=C(CN1CCN(C(=O)c2ccco2)CC1)Nc1c2c(nc3c1CCC3)CCCC2,–,inactive: -10.1%
COCCNC(=O)C1CCC(CNS(=O)(=O)c2ccc(F)cc2)CC1 (configuration not stated),"inconclusive: 39.8 µM [inhibitor, partial curve, poor fit]",–
COc1cccc(-n2nnnc2SCC(=O)NCc2ccco2)c1,"inconclusive: 28.2 µM [inhibitor, partial curve, poor fit]",–
O=C(NCc1ccccn1)C1CCN(S(=O)(=O)c2cnc[nH]2)CC1,active: 17.8 µM,–
CCCCOc1ccc(-c2c(C#N)c(N)[nH]c(=S)c2C#N)cc1,–,inactive: -16.4%
CCc1ccc(Nc2nnc(SCC(=O)NC(=O)CN3CCCC3=O)s2)cc1,active: 44.7 µM,–
COc1ccc(-c2cnc(C)o2)cc1S(=O)(=O)Nc1ccc(F)cc1F,"inconclusive: 100 µM [inhibitor, single point]",–
Cc1ccc(C)c(S(=O)(=O)N2CCN(CC(=O)Nc3sccc3C#N)CC2)c1,"inconclusive: 20 µM [inhibitor, partial curve]",–
COc1ccc(-c2coc3c2c(C)cc2oc(=O)c(CC(=O)O)c(C)c23)cc1,–,inactive: -13.9%
Cc1ccc(CN2CC(C(=O)Nc3cc(S(C)(=O)=O)ccc3Cl)CC2=O)cc1 (configuration not stated),"inconclusive: 35.5 µM [inhibitor, partial curve, poor fit]",–
CCOC(=O)C1=C(C)N(C)C(=S)NC1c1ccc(Cl)cc1Cl (configuration not stated),"inconclusive: 100 µM [inhibitor, partial curve, poor fit]",–
Cn1c(=O)c2cc(C(=O)NC3CCCCCC3)sc2c2ccccc21,"inconclusive: 56.2 µM [inhibitor, partial curve, poor fit]",–
O=S(=O)(O)CCN1CCOCC1,"inconclusive: 39.8 µM [inhibitor, partial curve, poor fit]",–
Cc1ccc(/C=C2/SC(=O)NC2=S)o1,active: 8.91 µM,–
COc1ccc(-c2nc3cccc(C)n3c2NCc2ccco2)cc1OC,"inconclusive: 20 µM [inhibitor, full curve, poor fit]",–

Structure (SMILES),Potency,"activity change, negative = inhibition"
C=C1C(=O)OC2C1CCC(C)=C1C(=O)C3OC3(C)C12 (configuration not stated),active: 89.1 µM,–
O=C(COC(=O)CNC(=O)c1cc(Cl)cc([N+](=O)[O-])c1)NC(=O)NCc1ccco1,"inconclusive: 28.2 µM [inhibitor, single point]",–
CC(OC(=O)c1cccc(N(C)C)c1)C(=O)N1CCc2ccccc2C1 (configuration not stated),"inconclusive: 44.7 µM [inhibitor, partial curve, poor fit]",–
CC/C(=N/Nc1cccc(C)c1)c1cnnc(SC)n1,"inconclusive: 15.8 µM [inhibitor, partial curve]",–
CC(OC(=O)C1CC1)C(=O)Nc1cc(C(F)(F)F)ccc1Cl (configuration not stated),"inconclusive: 89.1 µM [inhibitor, partial curve, poor fit]",–
O=C(COC(=O)/C=C/c1ccc(F)cc1)Nc1ccc(Cl)cn1,–,inactive: 2.34%
CC[C@H]1C(=O)[C@@H](Cc2ccccc2)[C@@H]2CCN3C(=O)CCC[C@H]1[C@H]23,–,inactive: -14.3%
O=C(O)[C@@H](c1ccccc1)N1Cc2ccccc2C1=O,–,inactive: -3.01%
Cc1ccc(S(=O)(=O)/N=C2\C=C(Nc3cccc(C(=O)O)c3)C(=O)c3ccccc32)cc1,active: 31.6 µM,–
O=C1NC(=S)NC1=Cc1ccco1,active: 12.6 µM,–
CC(C)N1CCc2c(sc(N)c2C#N)C1,–,inactive: -9.6%
Cc1ccc(NC(=O)CCS(=O)(=O)c2ccc(Br)s2)cc1,–,inactive: -13.1%
CC(C)(C)OC(=O)C[C@@H]1C/C=C\C[C@H](CC(=O)NCCO)C(=O)N2CCC[C@H]2COC1=O,–,inactive: 8.72%
COc1ccc(N2CCN(S(=O)(=O)c3ccc(-c4cc(C(F)(F)F)on4)s3)CC2)cc1,–,inactive: -7.5%
COc1cc(C2Nc3cccc4cccc(c34)N2)cc(OC)c1O,"inconclusive: 56.2 µM [inhibitor, partial curve, poor fit]",–
CS(=O)(=O)c1sc(C#N)c2c1C(=O)CC(c1ccccc1)C2 (configuration not stated),"inconclusive: 50.1 µM [inhibitor, partial curve, poor fit]",–
O=C(CCN=C1NS(=O)(=O)c2ccccc21)OCc1nnc(-c2ccc([N+](=O)[O-])cc2)o1,"inconclusive: 11.2 µM [inhibitor, full curve, poor fit]",–
COc1cccc(N(C(=O)c2ccco2)C(C(=O)NC2CCCC2)c2cccnc2)c1 (configuration not stated),"inconclusive: 39.8 µM [inhibitor, single point]",–
Cc1ccc(NC2=CC(=O)C(=O)c3ccccc32)cc1,active: 79.4 µM,–
O=C(CSCc1cccc(Cl)c1)Nc1ccccc1-c1ccccc1,"inconclusive: 44.7 µM [inhibitor, partial curve, poor fit]",–
c1ccn2c(c1)nc1c2nc2ccccn21,–,inactive: -16.9%
